Measured values taken from the supplement of paper PMC4967469.
pIC50: −log10 of the molar value. IC50 is the fitted dose that halves viability relative to control wells, and lower means more sensitive; a fit beyond the top or the lowest dose is shown as a bound at that dose. AUC, from the same fit, is the share of area under the viability curve across the 256-fold dose range; the more sensitive the line, the further below 1. An inferred top dose comes from the curve model; the source does not state it.

How the values were obtained:
Experiment in all cases: Viability of human cancer cell lines after 72 h of drug (GDSC screen)
ACHP (KIN001-260) = compound: N#Cc1c(C2CCNCC2)cc(-c2c(O)cccc2OCC2CC2)nc1N [ACHP (KIN001-260)]; settings: top dose 20 µM; top dose inferred
Procedure: (§1)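 Human cancer cell lines in 384-well plates, medium with 10% serum, drug for 72 h over a 256-fold dose range (nine 2-fold or five 4-fold steps up to the top dose). Adherent lines were fixed and stained with the nucleic acid dye Syto60, suspension lines read with resazurin; signal relative to control wells, capped at 0 and 100%. One two-parameter sigmoid per drug and line, fitted in a mixed model over all curves with the slope shared within a line.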

CH5424802 = compound: CCc1cc2c(cc1N1CCC(N3CCOCC3)CC1)C(C)(C)c1[nH]c3cc(C#N)ccc3c1C2=O [CH5424802]; settings: top dose 5.12 µM; top dose inferred
Procedure: as §1

CAY10603 = compound: CC(C)(C)OC(=O)Nc1ccc(-c2cc(C(=O)NCCCCCCC(=O)NO)no2)cc1 [CAY10603]; settings: top dose 20 µM; top dose inferred
Procedure: as §1

XMD8-92 = compound: CCOc1cc(N2CCC(O)CC2)ccc1Nc1ncc2c(n1)N(C)c1ccccc1C(=O)N2C [XMD8-92]; settings: top dose 10 µM; top dose inferred
Procedure: as §1

Cell Line	AUC (ACHP (KIN001-260))	pIC50 (ACHP (KIN001-260))	AUC (CH5424802)	pIC50 (CH5424802)	AUC (CAY10603)	pIC50 (CAY10603)	AUC (XMD8-92)	pIC50 (XMD8-92)
MFE-319 (endometrium, adherent)	0.989	< 4.70	0.989	< 5.29	0.928	< 4.70	0.95	< 5.00
MFM-223 (breast, adherent)	0.982	< 4.70	0.985	< 5.29	0.601	5.63	0.856	5.10
MHH-ES-1 (Ewing sarcoma, adherent)	0.84	4.87	0.971	< 5.29	0.442	6.06	0.895	< 5.00
MKN28 (stomach, adherent)	0.981	< 4.70	0.984	< 5.29	0.654	5.47	0.849	5.11
MLMA (hairy cell leukaemia, semi-adherent)	0.859	4.77	0.919	< 5.29	0.322	6.40	0.861	5.07
MMAC-SF (melanoma, adherent)	0.987	< 4.70	0.987	< 5.29	0.576	5.69	0.863	5.03
MN-60 (B-cell leukaemia, suspension)	0.942	< 4.70	0.893	< 5.29	0.426	6.11	0.828	5.19
MOG-G-CCM (glioma, adherent)	0.947	< 4.70	0.979	< 5.29	0.462	6.01	0.922	< 5.00
MOG-G-UVW (glioma, adherent)	0.981	< 4.70	0.987	< 5.29	0.374	6.25	0.938	< 5.00
MSTO-211H (mesothelioma, adherent)	0.991	< 4.70	0.991	< 5.29	0.707	5.35	0.977	< 5.00
MZ1-PC (pancreas, adherent)	0.898	< 4.70	0.957	< 5.29	0.455	6.04	0.92	< 5.00
MZ2-MEL (melanoma, adherent)	0.942	< 4.70	0.973	< 5.29	0.703	5.28	0.878	< 5.00
Mo-T (hairy cell leukaemia, suspension)	0.59	5.65	0.957	< 5.29	0.361	6.29	0.898	< 5.00
NALM-6 (B-cell leukaemia, suspension)	0.829	5.01	0.948	< 5.29	0.264	6.52	0.879	5.13
NAMALWA (Burkitt lymphoma, suspension)	0.931	< 4.70	0.974	< 5.29	0.063	> 7.11	0.915	< 5.00
NB5 (neuroblastoma, adherent)	0.951	< 4.70	0.983	< 5.29	0.512	5.87	0.923	< 5.00
NB6 (neuroblastoma, adherent)	0.974	< 4.70	0.972	< 5.29	0.359	6.33	0.831	5.07
NB7 (neuroblastoma, adherent)	0.978	< 4.70	0.985	< 5.29	0.509	5.88	0.985	< 5.00
NB13 (neuroblastoma, adherent)	0.928	< 4.70	0.99	< 5.29	0.272	6.51	0.916	< 5.00

Cell Line	AUC (ACHP (KIN001-260))	pIC50 (ACHP (KIN001-260))	AUC (CH5424802)	pIC50 (CH5424802)	AUC (CAY10603)	pIC50 (CAY10603)	AUC (XMD8-92)	pIC50 (XMD8-92)
NB69 (neuroblastoma, adherent)	0.962	< 4.70	0.975	< 5.29	0.468	5.99	0.727	5.60
NB(TU)1-10 (neuroblastoma, adherent)	0.947	< 4.70	0.992	< 5.29	0.408	6.14	0.993	< 5.00
NB-4 (acute myeloid leukaemia, suspension)	0.618	5.61	0.949	< 5.29	0.111	7.00	0.823	5.34
NCC021 (kidney, adherent)	0.984	< 4.70	0.925	< 5.29	0.46	6.02	0.97	< 5.00
NCI-H28 (mesothelioma, adherent)	0.976	< 4.70	0.978	< 5.29	0.843	< 4.70	0.927	< 5.00
NCI-H82 (small cell lung carcinoma, suspension)	0.983	< 4.70	0.989	< 5.29	0.542	5.79	0.969	< 5.00
NCI-H196 (small cell lung carcinoma, adherent)	0.98	< 4.70	0.949	< 5.29	0.361	6.29	0.985	< 5.00
NCI-H226 (lung squamous cell carcinoma, adherent)	0.958	< 4.70	0.987	< 5.29	0.437	6.08	0.914	< 5.00
NCI-H292 (lung adenocarcinoma, adherent)	0.925	< 4.70	0.977	< 5.29	0.357	6.34	0.851	< 5.00
NCI-H345 (small cell lung carcinoma, suspension)	0.98	< 4.70	0.985	< 5.29	0.533	5.81	0.989	< 5.00
NCI-H441 (lung adenocarcinoma, adherent)	0.973	< 4.70	0.98	< 5.29	0.882	< 4.70	0.962	< 5.00
NCI-H446 (small cell lung carcinoma, semi-adherent)	0.9	< 4.70	0.985	< 5.29	0.371	6.27	0.855	5.05
NCI-H460 (large cell lung carcinoma, adherent)	0.979	< 4.70	0.99	< 5.29	0.908	< 4.70	0.986	< 5.00
NCI-H524 (small cell lung carcinoma, suspension)	0.99	< 4.70	0.989	< 5.29	0.788	5.11	0.965	< 5.00
NCI-H630 (large intestine, adherent)	0.976	< 4.70	0.892	< 5.29	0.63	5.53	0.867	< 5.00
NCI-H650 (lung adenocarcinoma, adherent)	0.967	< 4.70	0.918	< 5.29	0.552	5.75	0.914	< 5.00
NCI-H716 (large intestine, suspension)	0.892	< 4.70	0.971	< 5.29	0.664	5.39	0.842	5.01
NCI-H720 (lung carcinoid, suspension)	0.991	< 4.70	0.992	< 5.29	0.968	< 4.70	0.971	< 5.00
NCI-H747 (large intestine, adherent)	0.949	< 4.70	0.951	< 5.29	0.564	5.71	0.855	< 5.00

Cell Line	AUC (ACHP (KIN001-260))	pIC50 (ACHP (KIN001-260))	AUC (CH5424802)	pIC50 (CH5424802)	AUC (CAY10603)	pIC50 (CAY10603)	AUC (XMD8-92)	pIC50 (XMD8-92)
NCI-H810 (large cell lung carcinoma, adherent)	0.946	< 4.70	0.975	< 5.29	0.308	6.43	0.892	< 5.00
NCI-H841 (small cell lung carcinoma, adherent)	0.98	< 4.70	0.988	< 5.29	0.77	5.12	0.961	< 5.00
NCI-H847 (small cell lung carcinoma, adherent)	0.882	4.84	0.963	< 5.29	0.198	6.69	0.901	5.07
NCI-H1155 (large cell lung carcinoma, suspension)	0.989	< 4.70	0.993	< 5.29	0.593	5.67	0.948	< 5.00
NCI-H1304 (small cell lung carcinoma, suspension)	0.988	< 4.70	0.973	< 5.29	0.755	5.14	0.885	< 5.00
NCI-H1355 (lung adenocarcinoma, adherent)	0.975	< 4.70	0.978	< 5.29	0.917	< 4.70	0.928	< 5.00
NCI-H1395 (lung adenocarcinoma, adherent)	0.973	< 4.70	0.948	< 5.29	0.675	5.34	0.97	< 5.00
NCI-H1436 (small cell lung carcinoma, suspension)	0.971	< 4.70	0.977	< 5.29	0.468	6.00	0.963	< 5.00
NCI-H1437 (lung adenocarcinoma, adherent)	0.969	< 4.70	0.976	< 5.29	0.63	5.54	0.946	< 5.00
NCI-H1563 (lung adenocarcinoma, adherent)	0.868	< 4.70	0.959	< 5.29	0.742	5.15	0.945	< 5.00
NCI-H1568 (lung adenocarcinoma, adherent)	0.982	< 4.70	0.968	< 5.29	0.982	< 4.70	0.905	< 5.00
NCI-H1623 (lung adenocarcinoma, adherent)	0.977	< 4.70	0.981	< 5.29	0.593	5.62	0.983	< 5.00
NCI-H1648 (lung adenocarcinoma, adherent)	0.983	< 4.70	0.899	< 5.29	0.474	5.97	0.967	< 5.00
NCI-H1651 (lung adenocarcinoma, adherent)	0.985	< 4.70	0.986	< 5.29	0.623	5.55	0.985	< 5.00
NCI-H1688 (small cell lung carcinoma, adherent)	0.966	< 4.70	0.986	< 5.29	0.561	5.73	0.982	< 5.00
NCI-H1694 (small cell lung carcinoma, suspension)	0.973	< 4.70	0.905	< 5.29	0.541	5.79	0.947	< 5.00
NCI-H1755 (lung adenocarcinoma, adherent)	0.837	4.79	0.919	< 5.29	0.302	6.50	0.96	< 5.00
NCI-H1770 (non-small cell lung carcinoma, suspension)	0.99	< 4.70	0.992	< 5.29	0.666	5.47	0.986	< 5.00
NCI-H1781 (lung adenocarcinoma, adherent)	0.966	< 4.70	0.988	< 5.29	0.846	4.84	0.987	< 5.00
